Test results published in patent US20160075754A1 (PROTALIX, published 2016).

Target: T1, Tumor necrosis factor-alpha (TNFα) (human, UniProt P01375 fragment)
T1 construct: also called TNF alpha; Recombinant TNFα
Test: sandwich ELISA: TNFα captured on an anti-TNFα coated plate, serial dilutions of BY2 cell lysate/supernatant, detection with goat anti human IgG Fc HRP

T1 sequence (P01375 77-233 limits assumed): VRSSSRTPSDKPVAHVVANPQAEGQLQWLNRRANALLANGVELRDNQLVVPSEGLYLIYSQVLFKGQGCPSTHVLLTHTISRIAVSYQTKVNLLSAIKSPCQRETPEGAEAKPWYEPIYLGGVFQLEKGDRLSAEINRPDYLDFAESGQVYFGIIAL

B1: plant recombinant human (prh) TNFR2:Fc (Fc fusion)
chain: LPAQVAFTPYAPEPGSTCRLREYYDQTAQMCCSKCSPGQHAKVFCTKTSDTVCDSCEDSTYTQLWNWVPECLSCGSRCSSDQVETQACTREQNRICTCRPGWYCALSKQEGCRLCAPLRKCRPGFGVARPGTETSDVVCKPCAPGTFSNTTSSTDICRPHQICNVVAIPGNASMDAVCTSTSPTRSMAPGAVHLPQPVSTRSQHTQPTPEPSTAPSTSFLLPMGPSPPAEGSTGD[human IgG1 Fc and a few adjoining residues cut from this listing]
notes: Expressed in N. tabacum BY2 cells; also called PRX-106; prh TNFR2:Fc-SEKDEL
binding result: binds
